Laboratory results from the supplement of paper PMC10369915.
The list shows a part of the results. Cut-off read from the data, not from the text of the source: active = 3.2 or more and inactive = the rest. Only a few entries rise above the background.

Assays:
Test in all cases: enrichment score (SH2-bound / input frequency) (ratio); bacterial display of known human phosphotyrosine sites (pTyr-Var adds point mutants) read by sequencing; higher = stronger binding; tyrosines were phosphorylated by kinases first
Settings in all cases: peptide library: Human pTyr
SHP2 C-SH2 domain E139D = target: SHP2 C-SH2 domain E139D
[1] = target: SHP2 C-SH2 domain wild-type
SHP2 N-SH2 domain L43F = target: SHP2 N-SH2 domain L43F
SHP2 N-SH2 domain T42A = target: SHP2 N-SH2 domain T42A
SHP2 N-SH2 domain T52S = target: SHP2 N-SH2 domain T52S
[2] = target: SHP2 N-SH2 domain wild-type

Measured: enrichment score
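Note: displayed peptides selected on beads carrying the immobilized SH2 domain, with library peptides lacking any tyrosine serving as negative controls.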

B1: MAGH1_HUMAN_195 (peptide)
chain: SKDWPCNYDWDSDDD
inactive: SHP2 C-SH2 domain E139D 1.06 | [1] 1.05 | SHP2 N-SH2 domain L43F 0.969 | SHP2 N-SH2 domain T42A 0.966 | SHP2 N-SH2 domain T52S 1.15 | [2] 1.41

B2: LYN_HUMAN_508 (peptide)
chain: YTATEGQYQQQPGGG
inactive: SHP2 C-SH2 domain E139D 0.522 | [1] 0.486 | SHP2 N-SH2 domain L43F 0.513 | SHP2 N-SH2 domain T42A 0.671 | SHP2 N-SH2 domain T52S 0.492 | [2] 0.634

B3: MAPK3_HUMAN_210 (peptide)
chain: EYVATRWYRAPEIML
inactive: SHP2 C-SH2 domain E139D 1.34 | [1] 1.12 | SHP2 N-SH2 domain L43F 1.09 | SHP2 N-SH2 domain T42A 1.09 | SHP2 N-SH2 domain T52S 1.09 | [2] 1.29

B4: LY96_HUMAN_22 (peptide)
chain: FTEAQKQYWVCNSSD
inactive: SHP2 C-SH2 domain E139D 1.19 | [1] 1.16 | SHP2 N-SH2 domain L43F 1.11 | SHP2 N-SH2 domain T42A 1.16 | SHP2 N-SH2 domain T52S 1.29 | [2] 1.31

B5: LTK_HUMAN_677_YA (peptide)
chain: DIARASAYRRGDRAL
inactive: SHP2 C-SH2 domain E139D 0.701 | [1] 0.703 | SHP2 N-SH2 domain L43F 0.548 | SHP2 N-SH2 domain T42A 0.732 | SHP2 N-SH2 domain T52S 0.794 | [2] 0.673

B6: ANDR_HUMAN_365_YA (peptide)
chain: AAQSRDAYNFPLALA
inactive: SHP2 C-SH2 domain E139D 0.727 | [1] 0.639 | SHP2 N-SH2 domain L43F 0.539 | SHP2 N-SH2 domain T42A 0.614 | SHP2 N-SH2 domain T52S 0.613 | [2] 0.572

B7: MAGI2_HUMAN_362_YA (peptide)
chain: EKIDDPIYGTAAVDH
inactive: SHP2 C-SH2 domain E139D 0.725 | [1] 0.7 | SHP2 N-SH2 domain L43F 0.668 | SHP2 N-SH2 domain T42A 0.662 | SHP2 N-SH2 domain T52S 0.726 | [2] 0.785

B8: M2OM_HUMAN_102 (peptide)
chain: TTTRLGIYTVLFERL
inactive: SHP2 C-SH2 domain E139D 2.5 | [1] 2.43 | SHP2 N-SH2 domain L43F 2.47 | SHP2 N-SH2 domain T42A 2.2 | SHP2 N-SH2 domain T52S 2.74
active: [2] 3.24

B9: LSAMP_HUMAN_94 (peptide)
chain: EKRHSLEYSLRIQKV
inactive: SHP2 C-SH2 domain E139D 2.13 | [1] 1.83 | SHP2 N-SH2 domain L43F 2.11 | SHP2 N-SH2 domain T42A 1.95 | SHP2 N-SH2 domain T52S 2.22 | [2] 2.5

B10: LRRK1_HUMAN_971 (peptide)
chain: TQQTEEQYFQFLAKF
inactive: SHP2 C-SH2 domain E139D 1.58 | [1] 1.42 | SHP2 N-SH2 domain L43F 1.52 | SHP2 N-SH2 domain T42A 2.08 | SHP2 N-SH2 domain T52S 1.76 | [2] 1.64

B11: LRRK2_HUMAN_1402 (peptide)
chain: FAGREEFYSTHPHFM
inactive: SHP2 C-SH2 domain E139D 0.657 | [1] 0.695 | SHP2 N-SH2 domain L43F 0.924 | SHP2 N-SH2 domain T42A 0.543 | SHP2 N-SH2 domain T52S 0.658 | [2] 0.583

B12: MAGD1_HUMAN_92 (peptide)
chain: TKGPNGVYDFSQAHN
inactive: SHP2 C-SH2 domain E139D 0.813 | [1] 0.513 | SHP2 N-SH2 domain L43F 0.617 | SHP2 N-SH2 domain T42A 0.64 | SHP2 N-SH2 domain T52S 0.743 | [2] 0.874

B13: ANDR_HUMAN_535 (peptide)
chain: MDSYSGPYGDMRLET
inactive: SHP2 C-SH2 domain E139D 0.622 | [1] 0.481 | SHP2 N-SH2 domain L43F 0.55 | SHP2 N-SH2 domain T42A 0.572 | SHP2 N-SH2 domain T52S 0.537 | [2] 0.442

B14: MAP2_HUMAN_67 (peptide)
chain: EHGSQGTYSNTKENG
inactive: SHP2 C-SH2 domain E139D 0.81 | [1] 0.696 | SHP2 N-SH2 domain L43F 0.739 | SHP2 N-SH2 domain T42A 1.05 | SHP2 N-SH2 domain T52S 0.856 | [2] 0.733

B15: MARE1_HUMAN_124 (peptide)
chain: ANYDGKDYDPVAARQ
inactive: SHP2 C-SH2 domain E139D 0.659 | [1] 0.552 | SHP2 N-SH2 domain L43F 0.519 | SHP2 N-SH2 domain T42A 0.54 | SHP2 N-SH2 domain T52S 0.494 | [2] 0.563

B16: MARE2_HUMAN_167_YA (peptide)
chain: ANADGKEYDPVEARQ
inactive: SHP2 C-SH2 domain E139D 0.658 | [1] 0.704 | SHP2 N-SH2 domain L43F 0.855 | SHP2 N-SH2 domain T42A 0.643 | SHP2 N-SH2 domain T52S 0.78 | [2] 0.703

B17: MANF_HUMAN_76 (peptide)
chain: GKENRLCYYIGATDD
inactive: SHP2 C-SH2 domain E139D 1.3 | [1] 1.4 | SHP2 N-SH2 domain L43F 1.1 | SHP2 N-SH2 domain T42A 1.47 | SHP2 N-SH2 domain T52S 1.47 | [2] 1.88

B18: MAK_HUMAN_159_YA (peptide)
chain: SQPPATDYVSTRWAR
inactive: SHP2 C-SH2 domain E139D 1.22 | [1] 0.945 | SHP2 N-SH2 domain L43F 0.834 | SHP2 N-SH2 domain T42A 0.887 | SHP2 N-SH2 domain T52S 1.1 | [2] 1.11
